# From PubChem BioAssay AID686971 (National Center for Advancing Translational Sciences (NCATS), 2013)
# The campaign covered roughly 360,000 compounds. About 7,500 (2.1%) were called active. The shares of active, inactive and inconclusive entries below differ from those in the screen. Calls come from the whole dose curve; as a rule, active = well fitted cell-killing curve with a large enough effect; inconclusive = small, poorly fitted or top-dose-only effect, or effect the other way, or another doubt; inactive = no such curve, though single readings can be large or run the other way. No potency is given beside an inconclusive call; the fits are too rough.
# Experiment: qHTS for induction of synthetic lethality in tumor cells producing 2HG: qHTS for the HT-1080-IDH1KD cell line;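 for activity, negative = toxicity: 0% = DMSO wells and -100% = cell-free medium wells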
# Details: HT-1080 IDH1 knockdown viability, ATP luminescence, 48 h; activity, negative = toxicity: at 46.1 µM (top of the series) unless noted
# In short: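 IDH1KD HT-1080 cells, 750/well, RPMI + 5% FBS; compound pinned after 2 h settling; 48 h, 37 °C; CellTiter-Glo luminescence; % activity normalised to DMSO and no-cell wells; curves fitted, classed by r2 and efficacy.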
# Potency is the fitted concentration of half-maximal effect; tags give direction and shape of the fitted curve.
SMILES,"activity, negative = toxicity",Potency
COc1ccc(C(=O)NC(C(=O)NCCc2ccc3c(c2)OCCO3)C(C)C)cc1 (stereo not given),inactive: 0.182%,
COc1cc2c(c(OC)c1OC)-c1ccc(N(C)CC(OC)OC)c(=O)cc1[C@@H](NC(C)=O)CC2,,active: 0.651 µM
O=C(NCc1nc2ccccc2[nH]1)C1=C[C@H](c2ccccc2)C[C@H](OCc2ccc(CO)cc2)O1,inactive: -5.4%,
O=c1c(-c2nc3ccccc3s2)cccn1Cc1ccc(Cl)cc1,,"inconclusive [cytotoxic, single point]"
O=C(CSc1nnc2c(n1)[nH]c1ccccc12)Nc1ccc2c(c1)OCO2,,"inconclusive [cytotoxic, single point]"
Cc1cccc(C)c1NC(=O)C(c1ccc(C#N)cc1)n1c(=O)c(-c2cc3ccccc3[nH]2)nc2ccccc21 (stereo not given),,"inconclusive [cytotoxic, partial curve]"
COc1cccc(C(CCc2cc(OC)c(OC)c(OC)c2)NC(C)=O)c1 (stereo not given),inactive: 8.23%,
CC(=O)Oc1ccc(N(C(C)=O)S(=O)(=O)c2ccc(Cl)cc2)c2ccccc12,,"inconclusive [cytotoxic, single point]"
BrC(=C\c1ccccc1)/C=N/Nc1nc2ccccc2[nH]1,,"inconclusive [cytotoxic, single point]"
CCC1CCCCN1CC(=O)Nc1cc(C)nn1-c1nc(C)cc(C)n1 (stereo not given),,active: 4.47 µM
CC(=O)Nc1cccc(-c2cnc(NC(C)=O)cn2)c1,,"inconclusive [cytotoxic, single point]"
CCCCC[C@@H](C)N1C[C@H](COCc2ccccc2)Oc2cc(N3CC[C@@H](N(C)C)C3)ccc2S1(=O)=O,,active: 10.3 µM
COc1ccc(-c2cn[nH]c2-c2ccc(OCc3ccccc3)cc2O)cc1OC,,active: 13 µM
N#Cc1c(C(F)(F)F)cc(-c2cccc(Cl)c2)[nH]c1=O,,"inconclusive [cytotoxic, single point]"
COc1cccc(-c2oc3c(c2C(=O)OCCN2CCCCC2)C(O)CCC3)c1 (stereo not given),inactive: -8.19%,
CN1CCN(S(=O)(=O)c2ccc(CNC(=O)c3ccccc3)s2)CC1,inactive: -2.07%,
CC1CC(C)C[N+](=C2C=C(N3CCCC3)CC(C)(C)C2)C1 (stereo not given),,"inconclusive [cytotoxic, partial curve]"
Cc1cccc(C)c1-n1nnnc1-c1nc2cc3ccccc3cc2[nH]c1=O,,active: 0.366 µM
COc1ccc(NS(=O)(=O)c2cccc(NC(=O)c3ccc(Cl)nc3)c2)cc1,,active: 6.51 µM
COc1ccc2nc(Nc3nc(CSc4nc5ccccc5[nH]4)cc(=O)[nH]3)nc(C)c2c1,,"inconclusive [cytotoxic, partial curve]"
